Results taken from paper PMC6919601, “Identification of Plasmodium dipeptidyl aminopeptidase allosteric inhibitors by high throughput screening” (PLoS ONE, 2019).
Out of some 110,000 compounds screened, about 230 (0.21%) showed an effect of 50% or more. This is one part of the list.

molecular target: DPAP1 (Plasmodium falciparum, UniProt Q8IIJ9); assay: primary screen, percent inhibition; read by cleavage of a fluorogenic dipeptide substrate; higher = more effect of the substance; design: species or system P. falciparum D10 trophozoite lysates; single well
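Note: 30 min substrate incubation versus DMSO and 10 µM JCP410 controls.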

DPAP1, sequence (Q8IIJ9 whole entry, looked up): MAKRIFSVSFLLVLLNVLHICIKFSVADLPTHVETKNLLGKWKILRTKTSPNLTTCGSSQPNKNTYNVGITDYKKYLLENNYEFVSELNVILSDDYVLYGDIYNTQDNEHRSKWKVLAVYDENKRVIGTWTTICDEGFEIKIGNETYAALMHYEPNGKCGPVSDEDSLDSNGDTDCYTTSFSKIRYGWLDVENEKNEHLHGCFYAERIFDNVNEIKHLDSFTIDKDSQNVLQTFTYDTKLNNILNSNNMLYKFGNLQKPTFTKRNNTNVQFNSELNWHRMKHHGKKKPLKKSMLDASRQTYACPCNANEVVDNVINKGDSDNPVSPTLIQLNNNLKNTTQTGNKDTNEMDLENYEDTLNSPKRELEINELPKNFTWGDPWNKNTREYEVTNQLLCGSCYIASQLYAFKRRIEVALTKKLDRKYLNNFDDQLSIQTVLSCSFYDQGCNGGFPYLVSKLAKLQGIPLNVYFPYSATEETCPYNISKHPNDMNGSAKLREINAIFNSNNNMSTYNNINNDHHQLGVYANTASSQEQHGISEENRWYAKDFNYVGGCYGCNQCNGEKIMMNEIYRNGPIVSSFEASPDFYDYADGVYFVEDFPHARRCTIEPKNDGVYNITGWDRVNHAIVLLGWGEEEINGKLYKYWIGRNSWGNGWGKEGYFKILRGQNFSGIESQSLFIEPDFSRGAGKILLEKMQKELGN

| Compound | % Inhibition @ 10 uM |
| --- | --- |
| CCCOn1nnc2ccc([N+](=O)[O-])cc21 | -4.58% |
| Cc1cc(-c2cccc(Br)c2)c(C#N)c(N)n1 | -1.5% |
| CCC(=O)Nc1ccc(S(=O)(=O)Nc2nnc(CC)s2)cc1 | 4.42% |
| COc1ccc(/C=C/C(=O)C23CC4CC(CC(C4)C2)C3)cc1 | -1.97% |
| O=C(CCCN1C(=O)c2ccccc2C1=O)Nc1ccccc1C(=O)NC1CCCCC1 | 5.12% |
| COc1ccc(-n2ncc(C(=O)N3CCN(C)CC3)c2C2CCN(C(=O)OC(C)(C)C)CC2)cc1 | -8.99% |
| Cc1nc(NC(=O)COc2ccc(Cl)cc2)sc1C(=O)N(C)C | -1.44% |
| CC(C)(C)C1CCc2c(sc3ncnc(O)c23)C1 (stereo not shown) | 0.161% |
| COc1ccc(N(CC(=O)Nc2ccc(C(C)C)cc2)S(C)(=O)=O)cc1OC | 3.66% |
| Nc1nc(N2CCOCC2)ncc1F | -1.75% |
| Cc1cccc(NC2=NCC(C)(C)S2)c1C | 5.63% |
| Cc1nc2cccnc2n1-c1ccc(C(=O)O)cc1 | 3.29% |
| CCOc1cccc(CNC2CN3CCC2CC3)c1 (stereo not shown) | 1.72% |
| O=C(NC1(C(F)(F)F)NC(=O)N(C2CCCCC2)C1=O)C1CC1 (stereo not shown) | 0.221% |
| Cc1ccccc1N1C(=O)c2ccc(Oc3cccc(N)c3)cc2C1=O | -2.19% |
| Cc1cccc(NC(=O)c2cccnc2)c1C | 2.46% |
| CN1CCN(CCNC(=O)c2ccc3nc(-c4ccc(F)cc4)c(-c4ccc(F)cc4)nc3c2)CC1 | 8.94% |
| CN1CCN(Cc2c(F)cccc2F)CC1 | -0.603% |
| Cc1cc2c(n1Cc1ccccc1)C(=O)c1ccc(Br)cc1-2 | 1.4% |
| COc1ccc(OC)c(NC(=O)COc2cccc3ccccc23)c1 | -1.78% |
| COC(=O)c1cc2sc(C)cc2n1Cc1ccc(C)cc1 | -8.75% |
| O=C(CN1C(=O)CSc2ncccc21)NCc1ccc2c(c1)OCO2 | 1.03% |
| c1ccc(-n2nnnc2C2CCNCC2)cc1 | -9.03% |
| C=CCNC(=O)C1C(=O)NC2(C)CC1c1ccccc1O2 (stereo not shown) | -9.6% |
| Cc1ccc(NC(=O)c2ccc(F)cc2)c(C)c1 | 1.83% |
| O=C(NCCCO)c1nnc(Cc2c(F)cccc2Cl)o1 | 4.95% |

| Compound | % Inhibition @ 10 uM |
| --- | --- |
| CC1=C(C)/C(=N/OC(=O)c2cccc(C)c2)C=C(Br)C1=O | -0.053% |
| CCOC(=O)C1=C(C)N=c2s/c(=C\c3ccc(O)c(OC)c3)c(=O)n2C1c1ccc(Cl)cc1 (stereo not shown) | 10.5% |
| Cc1ccc(S(=O)(=O)N2CCN(CCNC(=O)C(=O)NCc3ccccc3)CC2)cc1 | 3.72% |
| Cc1[nH]c(-c2ccc(F)cc2)cc1C(=O)NC1CCCC(C)C1C (stereo not shown) | 0.813% |
| CCOC(=O)C1=C(CNCc2ccccc2OC)NC(=O)NC1c1ccccc1 (stereo not shown) | -6.91% |
| CC(C)(C)NC(=O)C1CC(c2ccc(F)cc2)=NO1 (stereo not shown) | -2.16% |
| Cc1sc2c(c1C)CN(CCN1CCOCC1)CN2C(=O)c1ccccc1 | -7.15% |
| CCCn1c(S)nc2c1c(=O)n(C)c(=O)n2C | 0.275% |
| Cc1ccc(C2SCC(C(=O)O)N2C(=O)c2ccc(F)cc2)cc1 (stereo not shown) | -3.29% |
| Cc1c(C(=O)N2CCCC2)oc2c1-c1nn(CC(=O)N3CCC(Cc4ccccc4)CC3)cc1CC2 | 0.335% |
| CC1C2NC(=O)N(Cc3ccccc3)C1(C)Oc1ccccc12 (stereo not shown) | 2.17% |
| O=S(=O)(NCCc1ccccc1)c1cnc(Cl)c(Br)c1 | -3.25% |
| CCN1CCCC1CNC(=O)c1cc(N)ccc1OC (stereo not shown) | 1.02% |
| CC(NC(=O)c1cc2c(s1)CS(=O)(=O)C2)C12CC3CC(CC(C3)C1)C2 (stereo not shown) | -3.5% |
| Cc1cc(NC(=O)CN2CCCCC2)no1 | 2.18% |
| CCCn1c2ccccc2c2cnn(CC(=O)N(CCOC)Cc3ccco3)c(=O)c21 | -4.25% |
| Cc1cc(O)n2nc(NC(=O)COc3ccc(Cl)cc3C)nc2n1 | -3.08% |
| Cc1[nH]c2ccccc2c1CCNC(=O)/C(=C/c1ccco1)NC(=O)c1cccc(Br)c1 | 2.18% |
| CCN(CC)CCCNC(=O)c1ccc(-c2nc(CS(=O)(=O)c3ccc(C)cc3)c(C)o2)cc1 | -3.86% |
| Cc1ccnc(NC(=O)Cc2ccccc2F)c1 | -0.0619% |
| CCOC(=O)c1c(NC(=O)c2cc(-c3ccc(OC)c(OC)c3)on2)sc(C(C)=O)c1C | -0.668% |
| Cc1cc(O)nc(N2CCCCC2)n1 | -0.239% |
| CN(C)CCN(C)Cc1ccccc1Br | -4.91% |
| CC(NC(=O)CNC(=S)N(CCCN1CCOCC1)Cc1cccs1)c1ccccc1 (stereo not shown) | 1.27% |
| COc1ccc(C2C(C#N)=C(N)Oc3[nH]nc(-c4ccccc4)c32)cc1 (stereo not shown) | -2.46% |
| C=CCN1C(=O)NC(=O)/C(=C/c2cn(Cc3ccc(Cl)cc3)c3ccccc23)C1=O | 7.93% |

| Compound | % Inhibition @ 10 uM |
| --- | --- |
| COc1ccc2c(c1)c1c(c(=O)n(CCc3ccccc3)c(=O)n1CC(=O)N1CCCC1)n2C | -3.72% |
| Cc1ccccc1NC(=O)c1c(C)nc(S)c(C#N)c1-c1ccc(Cl)cc1 | 16.5% |
| O=C(NCC1CCCO1)c1ccc2c(Cl)c3c(nc2c1)CCCC3 (stereo not shown) | 2.47% |
| COc1ccc(OC)c(-c2cc(C(=O)N3CCOCC3)no2)c1 | -1.84% |
| Oc1ncnc2c1sc1nc3ccccc3cc12 | -2.24% |
| CCc1nn(CC(=O)NCCN2CCCCCC2)c(=O)c2cc3occc3n12 | -4.01% |
| COCCNC(=O)Cn1cc2c(n1)-c1c(oc(C(=O)N3CCOCC3)c1C)CC2 | -5.93% |
| CCC(Cc1ccccc1)NC(=O)CN1C(=O)CSc2ncccc21 (stereo not shown) | -2.37% |
| COc1ccc(OC)c(C2CC(=O)N3CN(Cc4ccco4)CSC3=C2C#N)c1 (stereo not shown) | 6.87% |
| Cc1ccc(S(=O)(=O)Nc2cccc3ccc[n+](C)c23)cc1 | 4.88% |
| Cc1ccc(NC(=O)C2CCCC2)cc1O | -2.31% |
| Cc1cccc(OCC(=O)N2CCN(C(=O)COc3cccc(C)c3)CC2)c1 | 1.27% |
| CC1(C)CC2=Nc3ncnn3C(c3ccccn3)C2=C(O)C1 (stereo not shown) | -3.27% |
| COc1ccc2[nH]c(C)c(CCNC(=S)NC(C)(C)C)c2c1 | -5.79% |
| CCOC(=O)c1cn2nc(-c3ccc(OC)cc3)cc2nc1C1CCN(C(=O)OC(C)(C)C)CC1 | -4.74% |
| Cc1ccc(CN2C(=O)c3ccccc3S2(=O)=O)c(C)c1 | 2.09% |
| CCN(CC)C(=O)C1CCCN(Cc2cccc(Cl)c2)C1 (stereo not shown) | -0.127% |
| CS(=O)(=O)C1=NSC2=NC(=O)/C(=C\c3ccc(SCc4ccc(Cl)cc4)o3)C(=N)N21 | -0.0115% |
| CC(C)(C)NC(=O)COc1ccc(CNCc2cccnc2)cc1 | 0.245% |
| CSC1=C(C#N)C(c2ccccc2C)C(C#N)C(=O)N1 (stereo not shown) | 3.06% |
| CC(C)CC1C(C#N)=C(SCC(=O)Nc2ccc(Br)cc2)N=C2CCCC(O)=C21 (stereo not shown) | -1.64% |
| c1cncc(-c2nn3c(Cn4cnc5ccccc54)nnc3s2)c1 | 7.5% |
| Nc1ccccc1C(=O)N(Cc1ccccc1)Cc1ccccc1 | 4.06% |
| COc1ccc(C(=O)Nc2ccc3nn(-c4ccc(OC)cc4)nc3c2)cc1 | 0.643% |
| Cc1cc(C(=O)NCCCN2CCOCC2)c2c(C)nn(-c3ccccc3)c2n1 | 1.84% |
| NC(=O)c1c(NC(=O)CCCc2ccccc2)sc2c1CCCCC2 | 5.83% |

| Compound | % Inhibition @ 10 uM |
| --- | --- |
| CC1(C)CC(c2ccccc2)(C(CO)CNCc2ccccc2)CCO1 (stereo not shown) | 2.86% |
| O=C(O)CSc1c(O)nc2ccc(Cl)cc2c1-c1ccccc1 | -2.16% |
| CCn1c2ccccc2c2cc(CN3CCc4ccccc4C3)ccc21 | 0.708% |
| CCOCCCNC(=O)/C(C#N)=C/c1c(Oc2ccccc2F)nc2ccccn2c1=O | -4% |
| CCOC(=O)c1c(CC(C)C)csc1/N=C/C1C(=O)CC(C)(C)CC1=O | -3.14% |
| O=C(NCCc1ccccc1)c1cnccn1 | 0.727% |
| COc1ccc(OCC(=O)N2CCOCC2)cc1 | -3.58% |
| CCOCCCNC(=O)Cn1ncc2c3ccccc3n(C)c2c1=O | -9.31% |
| COc1ccc(C2SCC(=O)N2CC23CC4CC(CC(C4)C2)C3)cc1 (stereo not shown) | 1.33% |
| O=C(O)c1ccc(NC(=O)c2ccccc2NC(=O)c2cccc(F)c2)cc1 | -7.96% |
| O=C1c2ccccc2C2c3[nH]c4ccccc4c3CCN12 (stereo not shown) | -0.0372% |
| CC(C)C(NC(=O)OCc1ccccc1)C(=O)OCC1OC(O)C(O)C(O)C1O (stereo not shown) | -1.29% |
| CN1CCN(C(=O)c2cc(Cl)cc(Cl)c2)CC1 | -0.687% |
| OCCC1CCCCN1Cc1ccccc1F (stereo not shown) | -4.58% |
| CCOc1ccccc1-c1noc(CCCC(=O)N(C)C)n1 | 0.548% |
| COCCNC(=O)Cn1ncn2c(cc3cc(F)ccc32)c1=O | 4.84% |
| O=C(Cn1cnc2sc3c(c2c1=O)CCCC3)Nc1cc(Cl)ccc1Cl | -0.478% |
| O=C1C(=Cc2ccnc3ccccc23)C(=O)c2ccccc21 | 3.31% |
| Cc1ccc(Cn2ccn(Cc3c(F)cccc3Cl)c(=O)c2=O)cc1 | -2.58% |
| Cc1cc(C)n(-c2cc(N)nc(Cl)n2)n1 | -3.49% |
| COc1ccc(OC)c(-c2noc(N3CCN(C(=O)c4ccco4)CC3)n2)c1 | 1.25% |
| CC(O)CN(Cc1cccc(Cl)c1)CC(C)O (stereo not shown) | -7.34% |
| COc1ccc(N2C(=O)C(Cl)=C(Nc3cccc(C)c3)C2=O)cc1 | 1.57% |
| COc1cccc(CN(C)C)c1O | 1.37% |
| CCOc1ccc(C(=O)N(Cc2cccc(F)c2)C2CCS(=O)(=O)C2)cc1 (stereo not shown) | 2.02% |
